# Experimental data from ChEMBL document CHEMBL1156829.
# The full ranking holds about 5,400 compounds; the median of “IFI” is about 2, and the highest 2% start at about 22. The list shows a part of the results.
# Experiment: NOVARTIS: Inhibition Frequency Index (IFI) - the number of HTS assays where a compound showed > 50% inhibition/induction, expressed as a percentage of the number of assays in which the compound was tested.
# Type: functional
row,Structure (SMILES),IFI [%]
1,CC(=O)N(C1=C(N2CCCC2)C(=O)c2ccccc2C1=O)c1cccc(F)c1,7.69
2,COc1ccc(C(=O)N(CCCC(C)Nc2cc(OC)cc3cccnc23)Cc2ccccc2OC)cc1 (stereo unspecified),1.59
3,CCn1c2cc(C)sc2c2cnn(CC(=O)Nc3c(C)nn(C)c3C)c(=O)c21,0
4,C=CCCC(=O)N1CCC(C(=O)Nc2ccc(-c3nc4ccccc4o3)cc2)CC1,0
5,CCC(c1nc2ccccc2c(=O)n1-c1ccccc1OC)N(CCc1ccccc1)C(=O)c1ccc(C)cc1 (stereo unspecified),4.72
6,COc1ccc(OCCNC(=O)c2ccccc2Cl)cc1,7.69
7,CCCCN(C(=O)Nc1ccc(OCC)cc1)C(C)c1nc2ccccc2c(=O)n1-c1ccc(F)c(Cl)c1 (stereo unspecified),11.7
8,CCOc1ccc(-c2cn3c(n2)sc2cc(C(=O)NCCN(CC)CC)ccc23)cc1,10.3
9,COc1ccc(NC(=O)c2cccc([N+](=O)[O-])c2C)cc1,0
10,Cc1ccc(-c2cc(C)[n+](C)c(-c3ccc(C)cc3)c2)cc1,10.6
11,O=C(CN1C(=O)c2ccccc2C1=O)Nc1cc(Cl)ccc1C(=O)O,7.69
12,CCOc1ccc(OCc2nnc(S)n2N)cc1,0
13,N#Cc1cc2nc3c(nc2cc1C#N)-c1ccccc1C3=O,0
14,CCN(CC)C(=O)N1CCN(c2ccc(Nc3ccnc4cc5ccccc5cc34)cc2)CC1,2.3
15,O=C1CSc2ccccc2N1,1.39
16,CCOC(=O)c1cnc2c(C)cccc2c1Nc1ccc(C(C)=O)cc1,0
17,CCN(c1ccc(F)cc1)S(=O)(=O)c1ccc2[nH]cc(C(=O)NC(C)(C)C)c(=O)c2c1,0
18,CCN1/C(=C\C=C2/SC(=S)N(c3ccccc3)C2=O)C(C)(C)c2cc(-c3ccccc3)ccc21,25
19,Clc1ccc2c(N3CCCC3)ccnc2c1,5.71
20,COc1ccc(C2=C(c3ccc(OC)cc3)C3(c4ccccc4)C(=O)C2(c2ccccc2)C2C(=O)N(c4cc(Cl)ccc4C)C(=O)C23)cc1 (stereo unspecified),0
21,COc1ccc(Nc2c3c(nc4ccc(NC(=O)c5cc(=O)c6ccccc6o5)cc24)CCCC3)cc1OC,11.4
22,Cc1ccc2[nH]c3c(NCCCN(C)C)ncnc3c2c1,11.8
23,O=C(c1cc([N+](=O)[O-])cc([N+](=O)[O-])c1)N1CCN(c2cccc(C(F)(F)F)c2)CC1,5.04
24,Oc1ccc(-c2ccc3c(c2)OCO3)cc1CNC1CCN(Cc2ccccc2)CC1,1.96

row,Structure (SMILES),IFI [%]
1,CCOc1cc(C2CC(=O)NC3=C2C(=O)CC(c2cc(OC)ccc2OC)C3)ccc1O (stereo unspecified),0
2,Cc1ccccc1OCCSc1nc2ccc(NC(=O)c3ccccc3)cc2s1,0
3,CCC(CC)C(=O)N1CCOc2c(cc(-c3csc4ccccc34)cc2OCc2ccccn2)C1,1.74
4,C=CCn1c(COc2ccccc2C)nnc1SCC(=O)O,0
5,O=C(CSc1nnc2c(n1)[nH]c1ccccc12)Nc1ccc([N+](=O)[O-])cc1,2.29
6,O=C(NC1CCN(Cc2ccccc2)CC1)[C@@H](c1ccccc1)N1Cc2ccccc2C1=O,0
7,CC(C)CN1C(=O)c2ccccc2C(C(=O)NC2CCCCC2)C1c1cccs1 (stereo unspecified),6.06
8,CN(C)c1ccc(-c2n(C)c3ccccc3[n+]2C)cc1,6.25
9,CCCCOc1ccc(N(C(C)=O)C2=C(N3CCOCC3)C(=O)c3ccccc3C2=O)cc1,16.2
10,O=C(Cn1nc([N+](=O)[O-])nc1Br)NC1CCCCC1,0
11,O=C1CCC(CCNCc2ccc(Cl)cc2)N1CC1(N2CCCCC2)CCCC1 (stereo unspecified),0.971
12,Cc1ccccc1Oc1cc(NC(=O)c2cc3n(n2)C(C(F)(F)F)CC(c2ccccc2)N3)cc(Oc2ccccc2C)c1 (stereo unspecified),0.806
13,CC(C)OC(=O)CSc1nnc(CNc2nc(-c3ccccc3)cs2)n1C,0
14,CCC(C(=O)Oc1ccccc1-c1nc2ccccn2c1NC(C)(C)CC(C)(C)C)c1ccccc1 (stereo unspecified),4.72
15,CC(=O)Nc1sc(C)c(C)c1N=Nc1ccc(S(=O)(=O)O)cc1,0
16,CCCn1c(SCC(=O)Nc2ccccc2Cl)nc2c1c(=O)n(C)c(=O)n2C,3.7
17,COc1ccc(-c2nc(NC(=O)CS(=O)(=O)c3ccc(F)cc3)sc2C)cc1,0
18,COC(=O)c1ccc2c(c1)C(=O)c1ccccc1C2C1c2ccccc2C(=O)c2cc(C(=O)OC)ccc21 (stereo unspecified),0
19,CC(=NNc1nc2ccccc2s1)c1ccc([N+](=O)[O-])cc1,0
20,CCOC(=O)C(=O)N1c2ccc(OCC)cc2-c2c(ssc2=S)C1(C)C,0
21,Cc1ccccc1Cc1c(C)nc2c(C#N)c(C)nn2c1C,0
22,CCCCOc1ccc(-c2nnc(-c3ccc(C)cc3)n2-c2ccccc2)cc1,1.61
23,CCCCCCn1c2c(c(=N)c3c1CCC3)CCCC2,14.3
24,CCN(CC)Cc1ccc2c(NC(=O)c3ccc(C)s3)c(C(=O)OC)sc2n1,0.862

row,Structure (SMILES),IFI [%]
1,COc1c(N2CCN(Cc3c(C)cc(C)cc3C)CC2)c2nc3oc2c2c(OC(=O)C(C)(C)C)c(C)c4c(c12)[C@@H](O)[C@@](C)(OC=C[C@H](OC)[C@@H](C)[C@@H](OC(C)=O)C(C)[C@H](O)[C@H](C)[C@@H](O)C(C)C=CC=C3C)O4 (stereo partly specified),2.13
2,COc1cc(C(=O)N2C(C(=O)Nc3ccccc3F)CSC2c2ccc(C(C)(C)C)cc2)cc(OC)c1OC (stereo unspecified),1.05
3,O=C(O)c1cccc(NC(=O)c2ccc(N3C(=O)c4ccc(C(=O)Nc5cccc(C(=O)O)c5)cc4C3=O)cc2)c1,0
4,CCOC(=O)c1c(CC)nc(-c2ccccc2)nc1C(=O)N1CCC(C)CC1,2.25
5,COc1ccc(Nc2nc(NN=Cc3cccc(Cl)c3)nc(Nc3ccc([N+](=O)[O-])cc3)n2)cc1,3.95
6,CCCCCN(C(=O)COc1ccc(Cl)cc1)C(CC)c1nc2ccccc2c(=O)n1-c1cccc(Cl)c1 (stereo unspecified),2.86
7,CCC(c1nc2ccccc2c(=O)n1-c1cccc(Cl)c1)N(CCC(C)C)C(=O)COCc1ccccc1 (stereo unspecified),0.909
8,CCOc1ccc(CN2CCN(CC(O)COc3ccc(OCC(O)CN4CCN(Cc5ccc(OCC)cc5)CC4)cc3)CC2)cc1 (stereo unspecified),7.14
9,CCc1ccc(CSc2nc3cc(OC)c(OC)cc3c(=N)n2CCc2ccccc2)cc1,2.6
10,O=[N+]([O-])c1ccc(-c2nc3ccccc3n2-c2cc(-c3ccccc3)nn2-c2ccccc2)cc1,0
11,C[n+]1ccccc1/C=C/c1ccc(Br)cc1,4.25
12,Clc1ccc(NCn2nnc3ccccc32)nc1,1.59
13,CCOC(=O)c1cnc2c(OC)cccc2c1Nc1cccc(C(F)(F)F)c1,0
14,NC(=NOC(=O)c1ccccc1I)c1ccccn1,0
15,COc1ccc(OC)c(NC(=O)COc2cc3ccccc3cc2C(=O)Nc2cc(OC)c(Cl)cc2OC)c1,0
16,Cc1c2c(cc3c1ccc1ccccc13)C[N+]1(CCCCC1)C2,1.51
17,Cc1ccc2nc(Cl)c3cc(C(=O)Nc4ccc(CN5CCC(C)CC5)cc4)sc3c2c1,8.11
18,Cc1ccc(S(=O)(=O)N=C(NS(=O)(=O)c2ccc(C)cc2)c2ccccc2)cc1,0
19,CC(C)(C)c1ccc2[nH]c3c(c2c1)CCCC3=NO,3.17
20,Cc1cc(NCCCN(C)C)c2ccccc2n1,7.69
21,Cc1cc(Nc2cc(Cl)cc(Cl)c2)n2nc(C)nc2n1,0
22,COc1cccc(-c2nc3c(OC)ccc(OC)c3cc2CNCC(C)(C)CN(C)C)c1,2.61
23,Cc1nc(C23CC4CC(CC(C4)C2)C3)cs1,2.02
24,C=CCNC(=O)c1ccc2c(c1)N=C(CC(C)c1ccccc1)N(CC1CCCCC1)C2 (stereo unspecified),2.5

row,Structure (SMILES),IFI [%]
1,CN1/C(=C/c2cccc[n+]2C)C=Cc2ccccc21,8.33
2,c1ccc2cc3c(Nc4ccc(N5CCCCC5)cc4)ccnc3cc2c1,7.14
3,CC(C)N(CC(=O)Nc1cc(C(C)(C)C)nn1-c1ccc(Cl)c(Cl)c1)C(=O)c1ccc(C(C)(C)C)cc1,2.91
4,Fc1ccc(-n2cc(-c3ccccc3)[n+]3c2SCC3)cc1,0
5,Oc1ccc(-c2cncc(NCc3cccc(O)c3)c2)cc1,4.71
6,COc1ccc(N(CC(=O)Nc2cc(OC)ccc2OC)S(=O)(=O)c2ccc(C)cc2)cc1,0
7,CN(C)CCNC(=O)c1ccc(-c2cccc3c2sc2ccccc23)nc1N1CCN(CCO)CC1,11.3
8,N#Cc1c(NC(=O)COc2ccc(F)cc2F)sc2c1CCC2,0
9,CC(=O)Nc1ccccc1-c1nnn(CC(N)=O)n1,0
10,CCOC(=O)c1[nH]c(CSC#N)c(C(C)=O)c1C,0
11,O=C(Nc1ccc(-n2cccn2)cc1)C1CCN(Cc2nc3c(s2)CCCC3)CC1,0
12,COC(=O)C1=CNC=C(C(=O)OC)C1c1cc(Br)ccc1OC,6.25
13,CCOC(=O)C1=C(C)NC2=C(C(=O)CC(C)(C)C2)C1c1cc(I)sc1SC (stereo unspecified),1.46
14,Cc1ccc(-c2cc(-c3cc(Cl)ccc3O)on2)cc1,0
15,O=C(CCl)Nc1ccc(N2CCCCC2)cc1,7.69
16,COc1ccc(CNCc2cc3c(-c4ccc(C)cc4)nn(-c4ccccc4)c3[nH]c2=O)cc1,8.11
17,CCc1nc2nc(C)cc(Nc3ccc4c(c3)OCCO4)n2n1,0
18,C=CC[n+]1cccc2c3ccccc3ccc21,11.1
19,N#Cc1cc2[nH]c3ccccc3c2n(-c2ccc([N+](=O)[O-])cc2)c1=N,1.59
20,Cc1ccc(C)c(NC(=O)c2c(-c3c(Cl)cccc3Cl)noc2C)c1,4.6
21,CN1C=C(c2ccc3ccccc3n2)C(c2c[nH]c3ccccc23)c2ccccc21 (stereo unspecified),6.57
22,CN1CCN=C1c1ccc(NC(=O)Nc2ccc(NC(=O)Nc3ccc(C4=NCCN4C)cc3)cc2)cc1,0.893
23,O=C(C1=C(O)C(=O)N(CCCn2ccnc2)C1c1ccccc1[N+](=O)[O-])c1ccccc1 (stereo unspecified),0
24,O=C1C2C(C(=O)N1c1ccc(Cl)c(C(F)(F)F)c1)C1(c3ccccc3)C(=O)C2(c2ccccc2)C(c2ccccc2)=C1c1ccccc1 (stereo unspecified),0
